According to the supplement of paper PMC12067093, “Discovery and optimisation of a covalent ligand for TRIM25 and its application to targeted protein ubiquitination” (Chemical Science, 2025):
Of roughly 21,000 targets only a part is listed; those with the largest changes were picked by preference.

Compound: CC1Cc2ccccc2N1C(=O)C1CCCN(C1)C(=O)CCl (mixture of isomers) [TRIM25 ligand 11 (diastereomer mixture)]
Experiment: probe-labelled cysteine peptide fold change vs DMSO (competition) (log2 fold change); higher = less target engagement (more negative = stronger competition)
Settings: THP-1, incubation time: 4 h
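Further: competitive chemoproteomic profiling in live THP-1 cells with an iodoacetamide desthiobiotin (IA-DTB) probe, comparing probe-labelled peptide intensities in compound-treated cells against DMSO-treated controls.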

UniProt Q14849, sequence (Q14849 whole entry, looked up): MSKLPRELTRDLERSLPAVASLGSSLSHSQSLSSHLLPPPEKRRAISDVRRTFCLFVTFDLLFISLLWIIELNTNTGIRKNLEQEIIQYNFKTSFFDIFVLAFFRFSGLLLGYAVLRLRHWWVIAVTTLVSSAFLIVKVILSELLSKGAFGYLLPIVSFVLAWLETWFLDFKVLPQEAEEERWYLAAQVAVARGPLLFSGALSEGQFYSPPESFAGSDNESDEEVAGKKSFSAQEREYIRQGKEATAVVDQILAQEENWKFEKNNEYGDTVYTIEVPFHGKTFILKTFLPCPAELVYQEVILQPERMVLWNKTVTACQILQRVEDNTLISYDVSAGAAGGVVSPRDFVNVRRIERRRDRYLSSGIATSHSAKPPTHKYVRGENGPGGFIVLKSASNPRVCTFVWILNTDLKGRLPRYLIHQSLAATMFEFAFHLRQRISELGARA
UniProt Q9C0B7, sequence (Q9C0B7 whole entry, looked up): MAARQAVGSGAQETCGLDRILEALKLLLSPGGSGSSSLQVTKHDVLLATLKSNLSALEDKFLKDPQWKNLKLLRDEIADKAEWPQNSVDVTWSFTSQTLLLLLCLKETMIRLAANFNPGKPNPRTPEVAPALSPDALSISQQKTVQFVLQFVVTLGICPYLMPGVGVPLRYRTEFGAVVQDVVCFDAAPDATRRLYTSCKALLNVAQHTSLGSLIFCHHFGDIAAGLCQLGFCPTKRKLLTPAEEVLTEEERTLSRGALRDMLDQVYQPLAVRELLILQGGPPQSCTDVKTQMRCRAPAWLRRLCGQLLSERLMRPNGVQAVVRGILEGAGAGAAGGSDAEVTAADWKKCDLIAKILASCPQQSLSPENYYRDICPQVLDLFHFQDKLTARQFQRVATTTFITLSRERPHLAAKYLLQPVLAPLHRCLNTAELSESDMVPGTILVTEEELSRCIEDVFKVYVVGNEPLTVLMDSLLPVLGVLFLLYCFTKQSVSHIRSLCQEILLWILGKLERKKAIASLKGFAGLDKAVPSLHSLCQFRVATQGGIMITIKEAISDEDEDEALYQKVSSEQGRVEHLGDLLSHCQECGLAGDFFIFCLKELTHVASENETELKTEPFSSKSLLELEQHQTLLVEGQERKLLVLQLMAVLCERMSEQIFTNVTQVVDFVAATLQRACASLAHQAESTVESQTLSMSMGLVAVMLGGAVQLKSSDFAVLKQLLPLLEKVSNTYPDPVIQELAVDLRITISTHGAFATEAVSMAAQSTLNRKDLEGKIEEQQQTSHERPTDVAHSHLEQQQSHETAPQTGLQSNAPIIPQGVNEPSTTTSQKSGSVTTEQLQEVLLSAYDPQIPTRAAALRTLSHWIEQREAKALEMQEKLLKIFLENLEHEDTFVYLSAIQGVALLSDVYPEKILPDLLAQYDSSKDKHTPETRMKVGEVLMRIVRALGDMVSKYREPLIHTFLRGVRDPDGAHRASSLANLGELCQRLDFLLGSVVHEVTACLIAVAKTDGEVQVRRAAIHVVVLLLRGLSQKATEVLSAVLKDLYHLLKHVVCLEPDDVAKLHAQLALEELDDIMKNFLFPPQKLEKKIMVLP
UniProt P49842, sequence (P49842 whole entry): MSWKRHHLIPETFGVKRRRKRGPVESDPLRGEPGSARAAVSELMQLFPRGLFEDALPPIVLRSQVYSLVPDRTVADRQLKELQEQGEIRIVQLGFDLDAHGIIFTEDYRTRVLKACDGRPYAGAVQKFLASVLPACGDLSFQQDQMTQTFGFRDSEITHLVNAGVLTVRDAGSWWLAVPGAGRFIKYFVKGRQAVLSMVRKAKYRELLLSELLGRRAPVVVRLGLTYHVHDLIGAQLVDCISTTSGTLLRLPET
UniProt Q13148, sequence (Q13148 whole entry, looked up): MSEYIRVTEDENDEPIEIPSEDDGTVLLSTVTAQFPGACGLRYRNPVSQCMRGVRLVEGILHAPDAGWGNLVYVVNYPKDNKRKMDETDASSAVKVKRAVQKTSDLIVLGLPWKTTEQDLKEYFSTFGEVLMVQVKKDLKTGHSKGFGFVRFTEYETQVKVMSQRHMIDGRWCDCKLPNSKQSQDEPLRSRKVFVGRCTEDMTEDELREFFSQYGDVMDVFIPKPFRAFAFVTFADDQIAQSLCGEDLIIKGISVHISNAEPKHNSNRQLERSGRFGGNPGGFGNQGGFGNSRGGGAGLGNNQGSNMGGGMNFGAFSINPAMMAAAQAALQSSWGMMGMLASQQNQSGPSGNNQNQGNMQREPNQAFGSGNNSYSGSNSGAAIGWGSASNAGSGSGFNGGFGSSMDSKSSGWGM
UniProt P53597, sequence (P53597 whole entry, looked up): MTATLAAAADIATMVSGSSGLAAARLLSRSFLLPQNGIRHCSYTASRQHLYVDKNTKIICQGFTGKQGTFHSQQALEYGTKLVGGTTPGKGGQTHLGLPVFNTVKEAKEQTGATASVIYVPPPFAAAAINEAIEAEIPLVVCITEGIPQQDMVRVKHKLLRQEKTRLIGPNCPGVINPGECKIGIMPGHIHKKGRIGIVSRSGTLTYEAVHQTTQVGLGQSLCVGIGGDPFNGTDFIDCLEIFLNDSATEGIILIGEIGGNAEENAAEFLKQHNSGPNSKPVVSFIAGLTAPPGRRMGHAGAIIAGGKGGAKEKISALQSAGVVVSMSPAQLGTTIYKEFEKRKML
UniProt O14776, sequence (O14776 whole entry, looked up): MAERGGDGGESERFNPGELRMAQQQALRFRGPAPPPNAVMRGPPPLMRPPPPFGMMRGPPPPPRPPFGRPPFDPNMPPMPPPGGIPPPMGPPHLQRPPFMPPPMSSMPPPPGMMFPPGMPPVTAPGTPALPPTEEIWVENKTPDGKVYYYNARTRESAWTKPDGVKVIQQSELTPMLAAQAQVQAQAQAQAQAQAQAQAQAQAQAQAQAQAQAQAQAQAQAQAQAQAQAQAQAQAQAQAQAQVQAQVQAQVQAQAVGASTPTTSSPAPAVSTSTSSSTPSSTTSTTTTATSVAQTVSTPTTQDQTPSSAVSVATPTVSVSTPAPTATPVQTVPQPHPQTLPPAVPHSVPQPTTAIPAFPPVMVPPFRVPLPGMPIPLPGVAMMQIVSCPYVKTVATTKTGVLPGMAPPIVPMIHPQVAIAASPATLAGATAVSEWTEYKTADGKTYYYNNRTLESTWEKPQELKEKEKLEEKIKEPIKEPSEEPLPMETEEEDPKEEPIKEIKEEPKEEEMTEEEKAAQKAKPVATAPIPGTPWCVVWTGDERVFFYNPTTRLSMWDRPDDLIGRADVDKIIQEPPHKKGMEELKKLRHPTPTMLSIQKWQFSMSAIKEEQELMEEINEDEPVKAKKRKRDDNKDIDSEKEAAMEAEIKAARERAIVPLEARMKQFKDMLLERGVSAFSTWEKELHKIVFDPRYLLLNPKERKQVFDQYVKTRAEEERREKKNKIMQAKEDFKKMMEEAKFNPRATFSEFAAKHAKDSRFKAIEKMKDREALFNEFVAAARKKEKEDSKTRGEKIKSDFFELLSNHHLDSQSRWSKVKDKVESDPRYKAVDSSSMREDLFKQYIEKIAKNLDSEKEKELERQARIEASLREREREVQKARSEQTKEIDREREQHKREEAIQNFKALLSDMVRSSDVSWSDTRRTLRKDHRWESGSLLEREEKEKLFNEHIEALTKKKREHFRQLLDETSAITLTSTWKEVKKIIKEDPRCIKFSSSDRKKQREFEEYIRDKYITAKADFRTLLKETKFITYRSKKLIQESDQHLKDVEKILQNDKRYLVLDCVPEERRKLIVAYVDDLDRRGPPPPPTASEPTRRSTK
UniProt Q9BXP5, sequence (Q9BXP5 whole entry, looked up): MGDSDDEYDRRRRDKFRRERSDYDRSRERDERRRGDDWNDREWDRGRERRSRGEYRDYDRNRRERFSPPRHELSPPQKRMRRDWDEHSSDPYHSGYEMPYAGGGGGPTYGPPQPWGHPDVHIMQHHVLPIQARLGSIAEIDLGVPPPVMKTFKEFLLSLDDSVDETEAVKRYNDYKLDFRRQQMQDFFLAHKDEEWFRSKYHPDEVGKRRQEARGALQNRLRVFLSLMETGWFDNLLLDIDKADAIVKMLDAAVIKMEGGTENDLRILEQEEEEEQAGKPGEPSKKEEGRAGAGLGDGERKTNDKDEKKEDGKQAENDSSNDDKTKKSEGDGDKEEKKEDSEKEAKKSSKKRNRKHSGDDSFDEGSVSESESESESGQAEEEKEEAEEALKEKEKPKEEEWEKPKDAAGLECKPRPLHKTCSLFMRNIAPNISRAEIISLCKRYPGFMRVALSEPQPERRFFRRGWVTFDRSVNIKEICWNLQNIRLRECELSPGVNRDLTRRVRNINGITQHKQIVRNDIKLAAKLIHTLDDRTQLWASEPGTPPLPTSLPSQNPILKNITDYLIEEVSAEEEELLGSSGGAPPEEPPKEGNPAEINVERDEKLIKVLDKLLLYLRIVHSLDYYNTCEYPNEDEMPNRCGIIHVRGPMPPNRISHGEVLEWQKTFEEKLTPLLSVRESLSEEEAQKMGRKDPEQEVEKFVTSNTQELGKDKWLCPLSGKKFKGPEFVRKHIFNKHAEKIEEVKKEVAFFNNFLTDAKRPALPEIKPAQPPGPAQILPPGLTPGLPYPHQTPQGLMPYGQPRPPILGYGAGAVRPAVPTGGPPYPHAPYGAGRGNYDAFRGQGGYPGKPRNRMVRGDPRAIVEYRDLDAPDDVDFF
UniProt Q15785, sequence (Q15785 whole entry, looked up): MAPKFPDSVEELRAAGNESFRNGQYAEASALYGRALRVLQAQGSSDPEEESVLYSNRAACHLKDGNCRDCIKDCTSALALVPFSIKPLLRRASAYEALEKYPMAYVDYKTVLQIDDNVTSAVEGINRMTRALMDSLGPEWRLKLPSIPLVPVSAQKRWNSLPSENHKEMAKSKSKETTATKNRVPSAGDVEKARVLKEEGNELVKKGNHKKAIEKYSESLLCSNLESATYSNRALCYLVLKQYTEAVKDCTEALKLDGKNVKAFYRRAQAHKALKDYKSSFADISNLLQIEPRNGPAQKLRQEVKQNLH
UniProt O75865, sequence (O75865 whole entry): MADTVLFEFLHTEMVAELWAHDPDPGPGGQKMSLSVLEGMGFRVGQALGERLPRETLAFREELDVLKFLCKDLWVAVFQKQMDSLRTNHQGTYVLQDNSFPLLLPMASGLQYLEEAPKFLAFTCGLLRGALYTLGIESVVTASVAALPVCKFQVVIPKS

Target	probe-labelled cysteine peptide fold change (10 µM)	probe-labelled cysteine peptide fold change (50 µM)
TAGLN2_P37802_38_QYDADLEQILIQWITTQCRK (UniProt P37802)	-1.01	-0.918
TANGO6_Q9C0B7_537_AVPSLHSLCQFR (UniProt Q9C0B7)	0.0851	0.453
SRPRB_Q9Y5M8_246_EFEFSQLPLKVEFLECSAK (UniProt Q9Y5M8)	-0.563	-0.365
THBS1_P07996_413_CEGSSVQTR (UniProt P07996)	0.558	0.502
TBL2_Q9Y4P3_375_VHGECIANLSFDITGR (UniProt Q9Y4P3)	0.00796	-0.148
TEP1_Q99973_1468_SWEEAVAAGNSGDPYPMGPFACLVQSLR (UniProt Q99973)	-0.621	-0.491
SRSF1_Q07955_16_GPAGNNDCR (UniProt Q07955)	0.282	0.178
TOP1_P11387_733_ITVAWCK (UniProt P11387)	-0.0805	-0.0295
SRPK1_Q96SB4_455_AEIPCEDEQEQEHNGPLDNK (UniProt Q96SB4)	-0.0458	-0.0274
SRPRB_Q9Y5M8_179_NTPSFLIACNK (UniProt Q9Y5M8)	0.000261	0.108
SUCLG1_P53597_172+181_LIGPNCPGVINPGECK (UniProt P53597)	-0.0541	0.0643
TRIM25_Q14258_168+174_EFFCPEHSECICHICLVEHK (UniProt Q14258)	0.191	0.102
TOE1_Q96GM8_80_SLLNQCIEER (UniProt Q96GM8)	-0.275	-1.19
TAF6L_Q9Y6J9_81_WSSVEAVCGYGSQEALPMRPAR (UniProt Q9Y6J9)	-0.207	-0.0714
TAGLN2_P37802_63_DGTVLCELINALYPEGQAPVK (UniProt P37802)	-0.0876	-0.171
TPP2_P29144_28_KETGAASFLCR (UniProt P29144)	-0.0524	-0.018
TRIM33_Q9UPN9_754_GSCGSSGR (UniProt Q9UPN9)	0.266	0.595
TIPRL_O75663_87_VACAEEWQESR (UniProt O75663)	-0.00126	-0.142
TPP2_P29144_28_ETGAASFLCR (UniProt P29144)	-0.0353	0.0865
TAF6_P49848_130_VPLDVCLK (UniProt P49848)	-0.0649	-0.172
SUPT6H_Q7KZ85_960_EELLNALYCEFINR (UniProt Q7KZ85)	0.253	0.263

Target	probe-labelled cysteine peptide fold change (10 µM)	probe-labelled cysteine peptide fold change (50 µM)
SRRT_Q9BXP5_490_ECELSPGVNR (UniProt Q9BXP5)	-0.0201	0.0463
SURF2_Q15527_116_YEECQK (UniProt Q15527)	-0.0453	-0.0823
SRPK1_Q96SB4_647_RATAAECLR (UniProt Q96SB4)	0.591	0.4
TELO2_Q9Y4R8_813_SWLADVAEKDPDEDCR (UniProt Q9Y4R8)	0.0749	0.233
THAP12_O43422_644_SDLPNPDTLSAELHCWR (UniProt O43422)	0.204	0.0702
TRAPPC13_A5PLN9_327_LSLEAIPDTVNLEEPFHITCK (UniProt A5PLN9)	0.0597	-0.216
THOC2_Q8NI27_28_GEFLHLCR (UniProt Q8NI27)	-0.0107	-0.00493
TBC1D1_Q86TI0_701_SPLEPVCEDGPFGPPPEEK (UniProt Q86TI0)	-0.0503	-0.49
STARD3_Q14849_291_TFLPCPAELVYQEVILQPER (UniProt Q14849)	0.749	-0.0598
SUPT6H_Q7KZ85_1435_YYQDCSGGDRK (UniProt Q7KZ85)	-0.0915	-0.00252
TBC1D9B_Q66K14_876_ELFASLTPWACGSHTPLLAGR (UniProt Q66K14)	-0.00548	-0.0126
STK19_P49842_354_LGLTYHVHDLIGAQLVDCISTTSGTLLR (UniProt P49842)	0.00174	-0.0024
THOC3_Q96J01_65_VHSVAWSCDGR (UniProt Q96J01)	-0.00981	0.0117
TRIM25_Q14258_127_TCLVCMASFCQEHLQPHFDSPAFQDHPLQPPVR (UniProt Q14258)	0.0645	-0.129
TNRC18_O15417_726_ADEDCVDDR (UniProt O15417)	-0.0358	-0.102
THOC2_Q8NI27_436_DVFNMFCYLGPHLSHDPILFAK (UniProt Q8NI27)	0.0358	-0.118
STARD4_Q96DR4_75_AQGVIDDLVYSIIDHIRPGPCR (UniProt Q96DR4)	0.224	0.346
THOP1_P52888_427_YGHAACFGLQPGCLR (UniProt P52888)	0.0447	-0.0427
SUGT1_Q9Y2Z0_154_CQEAQNGSESEVWTHQSK (UniProt Q9Y2Z0)	0.177	-0.0987
SUGT1_Q9Y2Z0_62_AYCHILLGNYCVAVADAK (UniProt Q9Y2Z0)	0.221	-0.0203
TBC1D9B_Q66K14_76_ILHQTQDSQVYWTVACGSSR (UniProt Q66K14)	0.00641	-0.0542

Target	probe-labelled cysteine peptide fold change (10 µM)	probe-labelled cysteine peptide fold change (50 µM)
TOMM34_Q15785_74_DCTSALALVPFSIKPLLR (UniProt Q15785)	-0.141	-0.141
TBC1D23_Q9NUY8_31_DLEEALEAGGCDLETLR (UniProt Q9NUY8)	-0.0107	-0.0319
TONSL_Q96HA7_1248_EGCALAHLTLSANHLGDK (UniProt Q96HA7)	0.0454	-0.0809
TRIM28_Q13263_221+224_HEPLVLFCESCDTLTCR (UniProt Q13263)	-0.0953	-0.162
TONSL_Q96HA7_537_ACIEGQLR (UniProt Q96HA7)	-0.00845	0.0855
STXBP3_O00186_557_SCEVIIGSTHVLTPK (UniProt O00186)	0.265	0.115
TBCE_Q15813_141_NCAVSCAGEK (UniProt Q15813)	-0.0162	-0.576
THUMPD1_Q9NXG2_31_CDAGGPR (UniProt Q9NXG2)	0.795	0.964
TRAFD1_O14545_119_TELCGNCGR (UniProt O14545)	0.47	0.589
SUPT16H_Q9Y5B9_273_NHMHFGAITCAMGIR (UniProt Q9Y5B9)	-0.0738	-0.0183
TCIRG1_Q13488_58_CEELEK<|>HOOK3_Q86VS8_272_CEELEK (UniProt Q86VS8+Q13488)	-0.105	-0.049
SUN1_O94901_657_CSETYETK (UniProt O94901)	-0.078	-0.0824
TNS3_Q68CZ2_512_DRETDILDDEMPHHDLHSVDSLGTLSSSEGPQSAHLGPFTCHK (UniProt Q68CZ2)	-0.357	-0.731
ST14_Q9Y5Y6_567_VNVVTCTK (UniProt Q9Y5Y6)	-0.0349	0.048
TLN1_Q9Y490_1353_AVTDSINQLITMCTQQAPGQK (UniProt Q9Y490)	-0.0261	-0.0102
TANC1_Q9C0D5_741_VVPVSLSELYLLQCNMK (UniProt Q9C0D5)	-0.0893	-0.179
TRAPPC11_Q7Z392_771_VPNISVHLLHEPPALTNEMYCLVVTVQSHEK (UniProt Q7Z392)	0.608	0.782
TARDBP_Q13148_50_YRNPVSQCMR (UniProt Q13148)	-0.0119	-0.0116
SRPK1_Q96SB4_647_ATAAECLR (UniProt Q96SB4)	-0.12	-0.0939
TBC1D8B_Q0IIM8_305_EVHECFLWVPFSHFNTHGK (UniProt Q0IIM8)	-0.0455	0.00922
TKT_P29401_41+42_ISSIQATTAAGSGHPTSCCSAAEIMAVLFFHTMR (UniProt P29401)	0.0318	-0.488

Target	probe-labelled cysteine peptide fold change (10 µM)	probe-labelled cysteine peptide fold change (50 µM)
TANK_Q92844_318_TKPSNLVNTCIR (UniProt Q92844)	-0.281	-0.415
TFB1M_Q8WVM0_160_WLENISCR (UniProt Q8WVM0)	0.114	0.159
TELO2_Q9Y4R8_367_AVLICLAQLGEPELR (UniProt Q9Y4R8)	0.000677	-0.124
TBCD_Q9BTW9_681_QAVCVLIEK (UniProt Q9BTW9)	-0.0775	0.234
TPP2_P29144_197_KYSDPGPVYDCLVWHDGEVWR (UniProt P29144)	-0.249	-0.173
TBL3_Q12788_511_LWALPQCQLLGVFSGHR (UniProt Q12788)	-0.306	0.0833
TRAPPC12_Q8WVT3_160_EVPGSEAARPEQEPPVAEPVPVCTIFSQR (UniProt Q8WVT3)	-0.246	-0.647
TCERG1_O14776_1062_RYLVLDCVPEER (UniProt O14776)	-0.0226	0.0368
SUZ12_Q15022_494_IDVSINECYDGSYAGNPQDIHR (UniProt Q15022)	0.38	0.433
SUGT1_Q9Y2Z0_88_GICEYHEK (UniProt Q9Y2Z0)	-0.0375	0.0208
TNFAIP8L3_Q5GJ75_272_INHVFNHFADVEFLSTLYSLDGDCRPNLK (UniProt Q5GJ75)	0.0412	0.145
TMF1_P82094_518_VQLACK (UniProt P82094)	0.133	0.0379
TBC1D9B_Q66K14_839_HLASQYWGCSR (UniProt Q66K14)	0.0803	-0.0404
STAG2_Q8N3U4_632_HTDTDVLEACSK (UniProt Q8N3U4)	0.0979	0.0641
TRAPPC6A_O75865_124_FLAFTCGLLR (UniProt O75865)	-0.0576	0.16
TIMM8A_O60220_62_AEACFVNCVER (UniProt O60220)	-0.073	0.0883
TERF1_P54274_118_NSAEAIIHGLSSLTACQLR (UniProt P54274)	-0.0786	-0.0349
TOR1AIP2_Q9H496_86_ACHPFLLGPPLVR (UniProt Q9H496)	0.0196	0.22
TPX2_Q9ULW0_364_ICRDPQTPVLQTK (UniProt Q9ULW0)	-0.0278	-0.176
STIL_Q15468_126_EVPECLEITPTASLPGDFLIPCK (UniProt Q15468)	0.41	0.231
